Assay results from patent US8791267B2, “Biaryl PDE4 inhibitors for treating inflammatory, cardiovascular and CNS disorders” (Decode Genetics EHF, priority 2007, dated 2014).
Where a name gives a salt, the structure may show the parent alone.

Tested on: sephadex bead stimulated LTE4 production in whole human blood (eosinophil activation)
Type: cell-based
Settings: Homo sapiens, read-out: IC50 in ex-vivo LTE4 assay

SMILES	IC50 [nM]
COc1ccc(Cc2ccc(OC(N)=O)cc2)c(F)c1-c1cccc(Cl)c1 [P-221]	< 1000
COc1ccc(Cc2cccc(OC(N)=O)c2)c(F)c1-c1cccc(Cl)c1 [P-222]	< 1000
COC(=O)Nc1nnc(Cc2ccc(OC)c(-c3cccc(Cl)c3)c2F)s1 [P-342, Methyl[5-(3′-Chloro-2-fluoro-6-methoxy-biphenyl-3-ylmethyl)-[1,3,4]thiadiazol-2-yl]-carbamate]	< 1000

Same assay, conditions: heparinized human whole blood, Sephadex G-15 stimulation, LTE4 by enzyme-linked immunoassay, read-out: IC50 in ex-vivo LTE4 assay

SMILES	IC50 [nM]
COc1ccc(Cc2ccc(F)cc2)c(F)c1-c1cccc([N+](=O)[O-])c1 [P-050]	< 1000
COc1ccc(Cc2ccnn2C)cc1-c1ccc2c(c1)OCO2 [P-075, 5-(3-Benzo[1,3]dioxol-5-yl-4-methoxy-benzyl)-1-methyl-1H-pyrazole]	< 1000
COc1ccc(Cc2ccc(NC(C)=O)cc2)c(F)c1-c1cccc([N+](=O)[O-])c1 [P-107]	< 1000
COc1ccc(Cc2ccc(N)cc2)cc1-c1cccc([N+](=O)[O-])c1 [P-113]	< 1000
COc1ccc(Cc2ccc(N)cc2)c(F)c1-c1cccc([N+](=O)[O-])c1 [P-136]	< 1000
COc1ccc(Cc2ccc(F)cc2)c(F)c1-c1cccc(Br)c1 [P-139]	< 1000
COc1ccc(Cc2ccc(F)cc2)cc1-c1cccc(C(C)=O)c1 [P-140, 1-[5′-(4-Fluoro-benzyl)-2′-methoxy-biphenyl-3-yl]-ethanone]	< 1000
COc1ccc(CN2C(=O)CC[C@@H]2CN)cc1-c1cccc([N+](=O)[O-])c1 [P-156, (R)-5-Aminomethyl-1-(6-methoxy-3′-nitro-biphenyl-3-ylmethyl)-pyrrolidin-2-one]	< 1000
COc1ccc(Cc2ccc(F)cc2)c(C#N)c1-c1cccc([N+](=O)[O-])c1 [P-163, 3-(4-fluoro-benzyl)-6-methoxy-3′-nitro-biphenyl-2-carbonitrile]	< 1000
COc1ccc(Cc2ccc(NC(C)=O)cc2)c(F)c1-c1cccc(Br)c1 [P-168]	< 1000
COc1ccc(Cc2ccc(CNC(=O)CN(C)C)cc2)c(F)c1-c1cccc([N+](=O)[O-])c1 [P-175]	< 1000
COc1ccc(Cc2ccc(NC(N)=O)cc2)c(F)c1-c1cccc([N+](=O)[O-])c1 [P-181]	< 1000
COc1ccc(Cc2ccc(F)cc2)c(F)c1-c1cccc(Cl)c1 [P-187]	< 1000
COc1ccc(Cc2ccc(NS(C)(=O)=O)cc2)c(F)c1-c1cccc(Br)c1 [P-200]	< 1000
COc1ccc(Cc2ccc(NS(C)(=O)=O)cc2)c(F)c1-c1cccc(Cl)c1 [P-227]	< 1000
COc1ccc(Cc2ccc(CNC(N)=O)cc2)c(F)c1-c1cccc([N+](=O)[O-])c1 [P-237]	< 1000
COc1ccc(Cc2ccc3c(c2)OCO3)c(F)c1-c1cccc(Cl)c1 [P-242]	< 1000
COc1ccc(Cc2ccc(NC(N)=O)cc2)c(F)c1-c1cccc(Cl)c1 [P-243, [4-(3′-chloro-2-fluoro-6-methoxy-biphenyl-3-ylmethyl)-phenyl]-urea]	< 1000

SMILES	IC50 [nM]
CCNC(=O)Nc1ccc(Cc2ccc(OC)c(-c3cccc(Cl)c3)c2F)cc1 [P-250]	< 1000
COc1ccc(Cc2ccc(NC(N)=O)cc2)c(F)c1-c1cccc(C(C)=O)c1 [P-269, [4-(3′-Acetyl-2-fluoro-6-methoxy-biphenyl-3-ylmethyl)-phenyl]urea]	< 1000
COc1ccc(Cc2ccc(CNC(N)=O)c(F)c2)c(F)c1-c1cccc(Cl)c1 [P-287]	< 1000
CCNC(=O)Nc1ncc(Cc2ccc(OC)c(-c3cccc(C(C)=O)c3)c2F)cn1 [P-315, 1-[5-(3′-Acetyl-2-fluoro-6-methoxy-biphenyl-3-ylmethyl)-pyrimidin-2-yl]-3-ethyl-urea]	< 1000
CCNc1ccc(Cc2ccc(OC)c(-c3cccc(Cl)c3)c2F)cn1 [P-318]	< 1000
COc1ccc(Cc2cnc(N(C)C)nc2)c(F)c1-c1cccc(C(C)=O)c1 [P-325, 1-[3′-(2-Dimethylamino-pyrimidin-5-ylmethyl)-2′-fluoro-6′-methoxy-biphenyl-3-yl]-ethanone]	< 1000
COc1ccc(Cc2ccc(C(N)=O)nc2)c(F)c1-c1cccc(C(C)=O)c1 [P-328, 5-(3′-Acetyl-2-fluoro-6-methoxy-biphenyl-3-ylmethyl)-pyridine-2-carboxylic acid amide]	< 1000
COc1ccc(Cc2ccc(CNC(N)=O)c(F)c2)c(F)c1-c1cccc(C(C)=O)c1 [P-330]	< 1000
COc1ccc(Cc2ccc(N(C)C)nc2)c(F)c1-c1cccc(C(C)=O)c1 [P-332, 1-[3′-(6-Dimethylamino-pyridin-3-ylmethyl)-2′-fluoro-6′-methoxy-biphenyl-3-yl]-ethanone]	< 1000
CNc1ccc(Cc2ccc(OC)c(-c3cccc(C(C)=O)c3)c2F)cn1 [P-336]	< 1000
COc1ccc(Cc2ccc(N(C)C(N)=O)cc2)c(F)c1-c1cccc(C(C)=O)c1 [P-338, 1-[4-(3′-Acetyl-2-fluoro-6-methoxy-biphenyl-3-ylmethyl)-phenyl]-1-methyl-urea]	< 1000
CCNc1ccc(Cc2ccc(OC)c(-c3cccc(C(C)=O)c3)c2F)cn1 [P-339]	< 1000
CCNC(=O)Nc1ccc(Cc2ccc(OC)c(-c3cccc(Cl)c3)c2F)cn1 [P-356]	< 1000
COc1ccc(Cc2ccc(NC(N)=O)cc2)cc1-c1cccc(Cl)c1 [P-378, [4-(3′-chloro-6-methoxy-biphenyl-3-ylmethyl)-phenyl]-urea]	< 1000
CCNC(=O)Nc1ccc(Cc2ccc(OC)c(-c3cccc(C#N)c3)c2F)cn1 [P-405, 1-[5-(3′-Cyano-2-fluoro-6-methoxy-biphenyl-3-ylmethyl)-pyridin-2-yl]-3-ethyl-urea hydrochloride salt]	< 1000
COc1ccc(Cc2ccc(C(N)=O)nc2)c(F)c1-c1cccc(C#N)c1 [P-415, 5-(3′-Cyano-2-fluoro-6-methoxy-biphenyl-3-ylmethyl)-pyridine-2-carboxylic acid amide]	< 1000
NC(=O)Nc1ccc(Cc2ccc(OC(F)F)c(-c3cccc(Cl)c3)c2)cc1 [P-420]	< 1000
COc1ccc(Oc2ccc(N)nc2)c(F)c1-c1cccc(C#N)c1 [P-439, 5-(3′-Cyano-2-fluoro-6-methoxy-biphenyl-3-yloxy)-pyridin-2-yl-ammonium chloride]	< 1000
